Test results from paper PMC4336329 (PLoS ONE, 2015).
About 14,000 (4.5%) of roughly 310,000 compounds showed an effect of 50% or more. Effects have a minus sign here. The list shows a part of the results.

What follows are molecules tested against human ether-à-go-go-related gene (hERG) potassium channel (human, UniProt Q12809) (assay: primary screen, population patch clamp on CHO cells stably expressing hERG).
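Also: peak tail current of the secondary pulse compared with the same well before compound.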

Chain of human ether-à-go-go-related gene (hERG) potassium channel (Q12809 whole entry, looked up): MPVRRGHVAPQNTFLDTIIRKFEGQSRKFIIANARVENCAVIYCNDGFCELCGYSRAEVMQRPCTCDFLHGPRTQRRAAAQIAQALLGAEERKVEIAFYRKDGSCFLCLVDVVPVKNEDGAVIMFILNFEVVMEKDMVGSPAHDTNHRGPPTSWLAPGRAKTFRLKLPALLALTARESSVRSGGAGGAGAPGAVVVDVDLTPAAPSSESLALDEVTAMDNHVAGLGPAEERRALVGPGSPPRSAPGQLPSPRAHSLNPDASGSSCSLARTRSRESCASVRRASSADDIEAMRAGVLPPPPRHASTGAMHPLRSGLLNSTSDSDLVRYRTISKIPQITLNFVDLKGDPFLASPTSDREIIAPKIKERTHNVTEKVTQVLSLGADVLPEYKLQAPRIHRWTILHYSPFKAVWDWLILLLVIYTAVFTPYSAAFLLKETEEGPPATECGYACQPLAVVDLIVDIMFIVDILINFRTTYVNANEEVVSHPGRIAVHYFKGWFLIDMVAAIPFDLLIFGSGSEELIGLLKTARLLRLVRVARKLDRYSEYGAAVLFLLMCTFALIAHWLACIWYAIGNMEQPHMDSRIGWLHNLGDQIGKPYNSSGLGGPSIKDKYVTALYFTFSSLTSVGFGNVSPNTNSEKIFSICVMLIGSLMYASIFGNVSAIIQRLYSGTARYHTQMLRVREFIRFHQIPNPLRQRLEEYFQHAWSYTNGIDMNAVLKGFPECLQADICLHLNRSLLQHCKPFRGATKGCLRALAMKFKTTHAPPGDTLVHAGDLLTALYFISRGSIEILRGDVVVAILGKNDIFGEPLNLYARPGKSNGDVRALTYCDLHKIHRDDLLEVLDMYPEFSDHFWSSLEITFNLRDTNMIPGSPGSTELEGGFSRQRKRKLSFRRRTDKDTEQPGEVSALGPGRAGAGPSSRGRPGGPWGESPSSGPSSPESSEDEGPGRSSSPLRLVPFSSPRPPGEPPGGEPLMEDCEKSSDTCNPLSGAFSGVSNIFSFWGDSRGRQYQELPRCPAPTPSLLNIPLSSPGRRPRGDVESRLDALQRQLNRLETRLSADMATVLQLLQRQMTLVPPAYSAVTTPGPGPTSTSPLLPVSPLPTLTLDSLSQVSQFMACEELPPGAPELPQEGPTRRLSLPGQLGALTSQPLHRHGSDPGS

Row | Structure (SMILES) | hERG current change (%, negative = inhibition) at 10uM
1 | CCN1CCN(C(CNS(=O)(=O)c2ccccc2)c2cccnc2)CC1 (centres unmarked) | -39.2%
2 | Cc1nnc(N/N=C/c2cc([N+](=O)[O-])c(N3CCC(C)CC3)cc2N2CCC(C)CC2)n1N.Cl | 15.6%
3 | CC(=O)Nc1ccc(NC(=O)C(C)Oc2ccccc2C(=O)NCc2ccccc2)cc1 (centres unmarked) | -46.9%
4 | CCCOC(=O)Nc1nc2ccccc2o1 | 19.5%
5 | CCCC/C(O)=C1\C(=O)CC(C)(C)CC1=NCCCCCC(=O)O | 7.59%
6 | Cc1cc(CNC(=O)COc2ccc([N+](=O)[O-])cc2)c2ccccc2n1 | -25.1%
7 | Nc1ccccc1C(=O)OC1CSC1 | 10.9%
8 | CN(C(=O)C(Cl)Cl)C1CC2C=CC1C2 (centres unmarked) | 5.29%
9 | CCCN(CCC)Cc1c(C(=O)N/N=C/C(C)=C\c2ccccc2)nnn1-c1nonc1N | 11.6%
10 | CCOC(=O)Cn1cnc2scc(-c3ccc(C)cc3)c2c1=O | 2.29%
11 | COC(=O)COc1ccc(S(=O)(=O)N2CCc3ccccc3C2)cc1 | 1.72%
12 | Cc1cc(F)ccc1S(=O)(=O)Nc1ccc(C(=O)N(C)Cc2ccco2)cc1 | -28%
13 | O=C(c1cnn2c(C(F)(F)F)cc(-c3ccc(F)cc3)nc12)N1CCc2ccccc2C1 | -3.83%
14 | S=C(NNc1cccc(Cl)c1)NC1CCCCC1 | 5.41%
15 | CC(C)c1ccc(NC(=S)NC2CCCCCC2)cc1 | -0.889%
16 | COc1cccc(CNC(=O)C2CCN(S(=O)(=O)c3cccc4nonc34)CC2)c1 | 19%
17 | CCNC(=O)C(=O)NCC1CCCN1S(=O)(=O)c1cccs1 (centres unmarked) | 3.16%
18 | CCCCCCNC(=O)C(C#N)c1nc2ccccc2nc1N1CCCC1 (centres unmarked) | 5.39%
19 | COc1ccc2c(c1OC)C(=O)OC2c1c(O)n(C2CCCCC2)c(=O)[nH]c1=O (centres unmarked) | -68.8%
20 | COCCNC(=O)c1onc(CSc2nc3ccccc3[nH]2)c1C(=O)NCCOC | -14.3%
21 | CCc1c(C)nc2ncnn2c1Nc1ccc(C)c(C)c1 | -17.6%
22 | COc1ccc2[nH]cc(CCNC(=O)C3CCCO3)c2c1 (centres unmarked) | 9.17%

Row | Structure (SMILES) | hERG current change (%, negative = inhibition) at 10uM
23 | CC1=C(C(=O)Nc2ccccc2C(=O)N2CCCCC2)SCCO1 | 12.3%
24 | O=C(O)C(=O)O.O=C(c1cccc(F)c1)N1CCN(Cc2ccc3c(c2)OCO3)CC1 | 6.43%
25 | CS(=O)(=O)N(CC(=O)Nc1ccccc1Br)Cc1ccccc1 | 8.95%
26 | CCOC(=O)c1oc2c(CN3CCN(C)CC3)c(O)ccc2c(=O)c1-c1ccccc1OC | 6.47%
27 | COCCN(Cc1cc2cc(C)ccc2nc1Cl)C(=O)Nc1ccccc1OC | 8.78%
28 | C/C=C/c1ccc(OCCCNC)c(OC)c1.O=C(O)C(=O)O | -44.6%
29 | COc1ccc(C(=O)Nc2ccc(-c3nnn(CC(=O)NCc4ccco4)n3)cc2)cc1 | -15.5%
30 | Fc1ccc(CN2CCSCC2)cc1F | 0.889%
31 | COC(=O)C1(C)CCc2cc(OC)ccc2C1=O (centres unmarked) | -3.11%
32 | COc1ccc(OC)c(CCNC(=O)Cn2sc3nc(C)cc(C)c3c2=O)c1 | -0.416%
33 | COc1ccc(C(=O)Oc2ccc(C(=S)N3CCOCC3)cc2)cc1 | 23.1%
34 | Cn1c(=O)c2c([nH]c(=S)n2Cc2ccc(Cl)cc2)n(C)c1=O | 17%
35 | CCOc1ccc(N(CC(=O)N2CCN(c3ccccc3OC)CC2)S(=O)(=O)c2ccc(F)cc2)cc1 | -15.1%
36 | O=C1/C(=C\c2cccs2)N=C(c2cccs2)N1Nc1ccccc1 | 13.5%
37 | CC1CC(C)CN(S(=O)(=O)c2cccc3nsnc23)C1 (centres unmarked) | 4.61%
38 | Cc1c(/C=N/NC(=O)CNc2ccccc2)c2ccccn2c1C(=O)c1ccccc1 | -8.97%
39 | Cc1nc(SCC(=O)NCCc2ccccc2)c2c(=O)n(C)c(=O)n(C)c2n1 | 3.58%
40 | CC(=O)C1=C(O)C(=O)N(CCCn2ccnc2)C1c1ccc(C)cc1 (centres unmarked) | -10.4%
41 | Cc1ccsc1C(=O)N1CC=C(c2ccccc2)CC1 | -15.4%
42 | O=C(CCNC(=O)c1ccccc1Cl)Nc1ccncc1 | 14.9%
43 | CCCC(=O)Nc1cc(S(=O)(=O)N(CC)CC)ccc1Cl | 2.34%
44 | COc1ccccc1CN1CC(C(=O)NCc2nccn2C)CCC1=O (centres unmarked) | 20.8%

Row | Structure (SMILES) | hERG current change (%, negative = inhibition) at 10uM
45 | O=C1Nc2ccccc2C1=Nc1ccc(Br)cc1 | 9.45%
46 | Cc1ccc(OCC(=O)N2c3ccccc3NC(=O)C2(C)C)c([N+](=O)[O-])n1 | 0.177%
47 | CCN(CC(=O)NCC(=O)Nc1cccc(C)c1C)Cc1ccccc1 | 5.6%
48 | Cn1c(SCC(=O)O)nnc1-c1ccc(NC(=O)c2ccc(Cl)c(Cl)c2)cc1 | 7%
49 | Cc1ccccc1-c1n[nH]c(=S)n1/N=C/c1c(C)nn(-c2ccccc2)c1C | 6.33%
50 | COc1ccc(CC(=O)Nc2cccc(-c3ccc4nnc(C)n4n3)c2)cc1 | -54.1%
51 | O=C(c1cn(-c2ccccc2)nc1-c1ccc(Cl)cc1)N1CCOCC1 | -28.4%
52 | CCc1ccc2c(COC(=O)C3CSC4(C)CCC(=O)N34)cc(=O)oc2c1 (centres unmarked) | -61.1%
53 | CCOC(=O)C1=C(N)OC2=C(C(=O)CC(C)(C)C2)C1c1cccnc1 (centres unmarked) | -29.5%
54 | CCc1nnc(N/N=C\c2ccc(OC(C)=O)c(OC)c2)n1N.Cl | 12.6%
55 | Cc1ccc2c(c1)cc(C)c1nnc(SCC(=O)NCc3ccco3)n12 | -41.3%
56 | COc1cc(NC(=O)COC(=O)/C=C/c2c(C)nn(C3CCS(=O)(=O)C3)c2Cl)cc(OC)c1OC (centres unmarked) | 9.21%
57 | COc1ccc(CCNC(=O)CSc2ccsc2[N+](=O)[O-])c(OC)c1 | 3.81%
58 | CN(C)c1ccc(/C=N/NC(=O)c2ccc(CN3CCOCC3)cc2)cc1Br | -47.5%
59 | COc1cc(OC)c(/C=N/NC(=O)Cn2nc([N+](=O)[O-])cc2C)c(OC)c1 | 3.01%
60 | Cc1ccc(N2C(=O)c3ccccc3C2C(=O)c2ccc(C)c(C)c2O)cc1 (centres unmarked) | 2.75%
61 | Cc1ccc2c(c1)NC(=O)CC(c1ccccc1)=N2 | -23.6%
62 | CC(OC(=O)c1cccs1)C(=O)Nc1nc(-c2ccccc2)cs1 (centres unmarked) | 26.3%
63 | Nc1nc(COC(=O)C2CC(=O)N(CCc3ccccc3)C2)nc(Nc2ccccc2)n1 (centres unmarked) | -52.2%
64 | CCCc1nc2oc3ccccc3c(=O)c2c(=O)n1-c1ccccc1 | -1.84%
65 | COc1ccc2nc(NC(=O)c3cnccn3)sc2c1 | 8.9%
66 | COc1ccc(CNC(=O)Cc2csc(Nc3nc(=S)[nH]c4ccccc34)n2)cc1 | 0.211%

Row | Structure (SMILES) | hERG current change (%, negative = inhibition) at 10uM
67 | CNC(=O)c1sc(Nc2ccc(OCc3ccccc3)cc2)nc1C | 7.65%
68 | O=C(CCc1nc2ccccc2c(=O)[nH]1)N1CCN(S(=O)(=O)c2cccc(F)c2)CC1 | -5.05%
69 | CCCCc1nnc(NC(=O)CS(=O)(=O)Cc2ccccc2)s1 | 11.5%
70 | O=S(=O)(c1ccc2ccccc2c1)N1CCN=C1SCc1cccnc1 | -43.9%
71 | O=C(CN1CCN(c2ccccc2F)CC1)c1ccc2cc[nH]c2c1 | -82.9%
72 | Cl.OC(COc1ccccc1)CN1C2=NCCCN2c2ccccc21 (centres unmarked) | -67%
73 | COc1cc(C(=O)N2CCN(S(=O)(=O)c3ccc(F)cc3)CC2)cc(OC)c1OC | -1.48%
74 | Cc1cc(C)cc(NS(=O)(=O)c2c(C)[nH]c(=O)[nH]c2=O)c1 | 24.4%
75 | COc1cccc(NC(=O)c2ccc3c(c2)N(CC(=O)N2CCOCC2)C(=O)C(C)(C)O3)c1 | -5.35%
76 | Cc1sc2ncn(CC(=O)N3CCN(c4ccc(F)cc4)CC3)c(=O)c2c1S(=O)(=O)N1CCOCC1 | -64.3%
77 | Cl.O=C(O)c1cc(S(=O)(=O)N2CCN(C(c3ccccc3)c3ccccc3)CC2)ccc1Cl | 14.7%
78 | O=C(Nc1cccc(CNCCc2c[nH]c3ccccc23)c1)c1ccccc1Cl.O=C(O)C(=O)O | -17.7%
79 | Cc1ccc(Cl)cc1NC(=S)NCCCSC1CCCCC1 | 9.82%
80 | COc1ccccc1Nc1nc(-c2sc(NC(=O)c3ccco3)nc2C)cs1 | 6.43%
81 | Cc1ccc(NC(=O)CCC(=O)N2CCOc3ccccc32)c(Cl)c1 | -8.08%
82 | O=C(COc1ccccc1[N+](=O)[O-])N1CCCc2ccccc21 | 7.26%
83 | COc1ccc(CCn2c(=O)c3cccnc3n(Cc3cccc([N+](=O)[O-])c3)c2=O)cc1OC | 0.296%
84 | CC(C)[C@H](NC(=O)N1c2ccccc2NC(=O)[C@@H]1C(C)C)C(=O)N1CCC(C(=O)O)CC1 | -4.78%
85 | CC(=O)c1ccc(-n2c(C)ccc2-c2ccccc2)cc1 | 1%
86 | O=C(CCn1cnc2ccccc21)N/N=C/c1ccccc1O | -11.7%
